According to the supplement of paper PMC11417369:
Some of the results follow.

Test system: PfSIP2 AP2 domain 1 (GST-tagged)
Test: gcPBM binding intensity (ln(normalized median fluorescence intensity)); higher = stronger DNA binding
Outline: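 GST-tagged P. falciparum DNA-binding domains produced in E. coli were incubated for 1 h on an Agilent 4 × 180k array of primer-extended double-stranded 36-bp intergenic genomic probes with negative controls. Binding intensity is the highest Masliner-normalised natural-log median intensity across replicate spots of either probe orientation, with bound protein detected by Alexa488 anti-GST antibody at 488 nm.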

| Sequence | gcPBM binding intensity (ln) |
| --- | --- |
| AATGAAATATGGATGGGTACACATTTGATTTTATTA [XGTACX_site6155] | 6.78 |
| ATATATATAAACATATGTACACATATATATAATACA [XGTACX_site1848] | 7.66 |
| TGTATGTATAGAAACACACATACATATATATAATAT [CACACA_site1405] | 6.92 |
| ATTTGTTTATAGGCCATAAAATATTTAATTCATTTG [CACACA_negctrl_site1824] | 6.81 |
| AGTATTATATTTGTATGTACGTAGTAATATATAAAA [XGTACX_site528] | 7.06 |
| TTTTTCATAAATATATGTACATATATTTTATATAAC [XGTACX_site3402] | 7.08 |
| ATTTATATTTATGATACACACACGTATATTCACATA [CACACA_site460] | 7.07 |
| AACAAGAAAAAAAAAAAAAAAAAAAAAAAATATTTT [XGTACX_negctrl_site428] | 6.71 |
| ATATATATATTTTTATGAGGCATAAGTAATATTTTT [TGCATGCA_negctrl_site317] | 8.34 |
| AATGTAATATAAATATGTACATAATATATATAATTA [XGTACX_site4762] | 6.87 |
| TTTTTATTTTTTTAGTATACGTACTAGGTTTGTTCT [XGTACX_site645] | 7.03 |
| ATATATTTATATATATGTACTTAAAACATTTCGATG [XGTACX_site328] | 6.86 |
| CATAAACTTTTTAACACACACTTATATATATATATA [CACACA_site4747] | 9.18 |
| TAATTTTTATGAAGAAGTACAAAATCTACTATCATA [XGTACX_site4985] | 6.77 |
| CTAAATAAAGTTAACACACACATAATATATATATGT [CACACA_site486] | 7.02 |
| AAAAATTCTTTTTCATCTATATGCAGAAAGAAAAAG [CACACA_negctrl_site1201] | 6.8 |
| TACATCTGTAATGTGTGTACATATATGTATATATTT [XGTACX_site1805] | 7.06 |
| GAATTTATGAACTGTGCATGTAAAAAAAACAACAAA [TGCATGCA_site449] | 8.15 |
| TATAATAATATATATTGTACACACAAAATGGGAAAA [XGTACX_site3911] | 7.37 |
| TATATGAAGCTATAGACACACATATAAAAATATAAT [CACACA_site4850] | 6.83 |
| ATATAAAAAAAAGATGAAAAAAAAAATGAAAGAAAG [CACACA_negctrl_site1266] | 7 |
| ATATATATAATATGATGTACATATTTATTTATATAT [XGTACX_site7333] | 7.53 |

| Sequence | gcPBM binding intensity (ln) |
| --- | --- |
| AATGAAATAAAATAAAGTACATATATGTAAAAGTAG [XGTACX_site5650] | 7.6 |
| TTTTTTTTTTTTTACACACACAAAATATTATCTGTA [CACACA_site5378] | 7.01 |
| AATTGAAAAGAATGAAGTACACATTTGATGATACAT [XGTACX_site5182] | 6.87 |
| GAATGCCTTGAAAATAGTACAATTAAGAAAAAATAC [XGTACX_site8002] | 7.48 |
| TAAATAAATTTATACACACACACACCGATATATATA [CACACA_site4622] | 7.48 |
| AATAAAAGATCATTTATTCTTTTTTTTCTTTTTAAA [CACACA_negctrl_site1256] | 6.7 |
| AAAATACATAAACGTTCACACATTTAAGATAACGAG [CACACA_site5345] | 6.79 |
| TGAATAAATATATATACACACATATATGTATATATT [CACACA_site1642] | 6.72 |
| TATATATATAATATATGTACATATTAATTATGTATA [XGTACX_site5366] | 8.1 |
| GAGTTTACACTCCCTTGTACATATTCATTTTTATTC [XGTACX_site5208] | 7.13 |
| TTTTATTTTATAAAAATAAAAAAAAAATTATTACAA [TGCATGCA_negctrl_site508] | 6.68 |
| TGAAAATAGTTAATTTGTACACAAAAATTAAGAAAA [XGTACX_site5794] | 7.01 |
| AATTAAATAAATGTATGTACATAATAAATATGTATT [XGTACX_site4379] | 6.96 |
| TTTTCGATGTTGGTAGGATGTATGGTACACGTAGTA [TGCATGCA_negctrl_site61] | 7.15 |
| AAAGAAATATATACAAAAATATGAACAATTTATTAT [XGTACX_negctrl_site78] | 6.81 |
| TATGAAAATATATATTGTACAGAATCTATAAAAAAT [XGTACX_site8030] | 6.89 |
| GAAAATTTTTGGTGTACACAAAAAAATCCAAAAAAA [CACACA_site5042] | 7.58 |
| TATGATTGTTTACGTTGTACAGCTGAATTGTTCTTA [XGTACX_site8114] | 6.83 |
| GATAAAATGGATGGATGTACATTATTTCCATATAAT [XGTACX_site7781] | 6.95 |
| ATATTACTTCCTAAGTGTACAAGTAAGGAGAAAAAA [XGTACX_site3921] | 7.18 |
| AGATGTTTTTATATATGTACTTAAATACACAAATAT [XGTACX_site8250] | 7.35 |
| AAAAAAAAAAAAAACACACACACAAAATAAACAAAC [CACACA_site2720] | 7.46 |
